Out of some 410,000 compounds screened, about 6,400 (1.6%) were called active. This list was built around the results that the source calls inconclusive (neither active nor inactive); the mix of calls is not that of the screen. Calls come from the whole dose curve; as a rule, active = well fitted inhibition curve with a large enough effect; inconclusive = small, poorly fitted or top-dose-only effect; inactive = no such curve, though single readings can be large or run the other way. Potencies beside an inconclusive call are fits to weak or partial responses and may not hold up.
The compounds below were run against Glucagon-like peptide 1 receptor (Homo sapiens) (UniProt P43220) (assay: qHTS of GLP-1 Receptor Inverse Agonists (Inhibition Mode)). Conditions: HEK293 GLP-1R CRE-luciferase, luminescence, 24 h, GLP-1R form is constitutively active; activity change, negative = inhibition: at 38.3 µM (top of the series) unless noted.
Method in brief: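 Inverse agonism was detected as reduced cAMP-driven luciferase luminescence after 24 h compound treatment. The cells were HEK293 clones expressing constitutively active human GLP-1R with the reporter. Reporter-only and GPR119 cell lines served as counterscreen controls.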
% is set by controls: 0 for no effect and ±100 for the full control effect; potency is the fitted concentration of half-maximal effect; tags give direction and shape of the fitted curve.
Note: nearly all actives have a fitted effect of over 55% in size.

UniProt P43220, sequence (P43220 whole entry, looked up): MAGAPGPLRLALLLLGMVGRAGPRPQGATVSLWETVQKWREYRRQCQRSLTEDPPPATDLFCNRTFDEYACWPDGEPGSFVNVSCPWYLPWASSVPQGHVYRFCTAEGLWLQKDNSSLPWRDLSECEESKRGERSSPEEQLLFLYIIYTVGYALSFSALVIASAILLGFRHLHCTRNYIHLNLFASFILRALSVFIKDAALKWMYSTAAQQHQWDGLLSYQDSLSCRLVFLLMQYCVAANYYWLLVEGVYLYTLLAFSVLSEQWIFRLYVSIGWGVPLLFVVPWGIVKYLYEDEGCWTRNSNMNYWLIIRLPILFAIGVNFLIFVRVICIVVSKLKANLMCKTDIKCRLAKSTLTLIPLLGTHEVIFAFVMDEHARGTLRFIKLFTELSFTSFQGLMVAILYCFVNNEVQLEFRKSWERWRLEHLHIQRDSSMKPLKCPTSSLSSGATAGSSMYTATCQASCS

Potency, inactive:
Clc1ccc2nc(C(Cl)(Cl)Cl)[nH]c2c1
CCCOc1ncnc2c1[nH]c1ccccc12
CCc1ccc(C(=O)NCC2COc3ccccc3O2)o1 (stereo unspecified)
CCOC(=O)c1nc(Nc2ccc(C(=O)OC(C)C)cc2)c2ccccc2n1
CCCCC(c1nnnn1CC1CCCO1)N1CCN(c2ccccc2)CC1 (stereo unspecified)
Cc1cccc(S(=O)(=O)c2c(N)n(/N=C/c3cccnc3)c3nc4ccccc4nc23)c1
CCOC(=O)c1c(C)[nH]c(C)c1C(=O)COC(=O)c1cccnc1SC
CCOC(=O)C1CCCN(Cc2ccc(OC)cc2OC)C1 (stereo unspecified)

Potency, inconclusive:
CSc1ccccc1NC(=O)c1cc(CC(C)C)on1 28.2 µM [inhibitor, single point]
CC(C)c1ccc(NC(=O)CN2C(=O)NC(Cc3c[nH]c4ccccc34)C2=O)cc1 (stereo unspecified) 8.91 µM [inhibitor, partial curve, poor fit]
COc1ccccc1CCC(=O)N(C)CC(=O)Nc1ccc(Cl)c(C(F)(F)F)c1 22.4 µM [inhibitor, partial curve, poor fit]
O=C(N1CCN(c2ccccc2F)CC1)C1(S(=O)(=O)c2ccc(Cl)cc2)CC1 6.31 µM [inhibitor, partial curve, poor fit]
O=[N+]([O-])c1cccc(COc2cccc(CN3CCCC3)c2)c1 10 µM [inhibitor, partial curve, poor fit]
CC(C)c1cccc(-c2csc(C(O)c3ccc(F)cc3)n2)c1 (stereo unspecified) 28.2 µM [inhibitor, single point]
Cc1cccc(CCNC(=O)c2cc3c(s2)-c2c(C)cccc2OC3)c1 5.01 µM [inhibitor, partial curve]
O=C(CNCc1ccccc1Cl)NCc1ccco1 28.2 µM [inhibitor, single point]
Cc1cc(-c2cc(-c3ccccc3)on2)nc(NC2CCCC2)n1 28.2 µM [inhibitor, single point]
O=C(CN1C(=O)CC(c2ccccc2)=Nc2ccccc21)Nc1ccc(Br)cc1 20 µM [inhibitor, single point]
O=C(NC1CCCCC1)C(c1ccccc1)n1c(=O)c(-c2cc3ccccc3[nH]2)nc2ccccc21 (stereo unspecified) 11.2 µM [inhibitor, partial curve, poor fit]
CN(CCNC(=O)C1CCCN(c2ncnc3c2nc2n3CCCCC2)C1)Cc1ccccc1 (stereo unspecified) 12.6 µM [inhibitor, single point]
CNC(=O)c1ccc2c(c1)N(Cc1cc(C)ccc1C)C(=O)c1ccccc1S2 11.2 µM [inhibitor, partial curve, poor fit]
COC(=O)CN1C(c2ccccc2)=Nc2ccc(Cl)cc2C1c1ccccc1 (stereo unspecified) 12.6 µM [inhibitor, single point]
CSc1nc(-c2ccc(C)cc2)[nH]c1S(=O)(=O)c1ccccc1 11.2 µM [inhibitor, partial curve, poor fit]
CCOc1ccc(N(CC(=O)Nc2ccccc2Cl)S(C)(=O)=O)cc1 4.47 µM [inhibitor, partial curve]
CCOc1ccccc1NC(=O)CN1CCCCCC1 11.2 µM [inhibitor, single point]
Cc1cc(NC(=O)c2cc(C(C)C)on2)nn1Cc1ccc(Cl)cc1 8.91 µM [inhibitor, partial curve, poor fit]
CCOC(=O)C1=CCN(S(=O)(=O)c2ccccc2Br)C1c1ccc(Cl)c(Cl)c1 (stereo unspecified) 15.8 µM [inhibitor, single point]
C=C(CN(C)C)C(=O)c1ccc2c(c1)OCO2 28.2 µM [inhibitor, single point]
CC(=O)Nc1nc(-c2ccc(Cl)cc2)nc(C)c1C(C)=O 28.2 µM [inhibitor, single point]
COc1ccccc1CCNC(=O)CSc1ccc(-c2cccs2)nn1 15.8 µM [inhibitor, single point]
C=C1C(=O)O[C@H]2[C@H]1[C@@H](O)CC(=C)[C@@H]1CC(=O)[C@@H](C)[C@H]21 28.2 µM [inhibitor, single point]
COc1ccc(Cc2n[nH]c(=S)n2NC(=O)Nc2ccc(Cl)c(Cl)c2)cc1 28.2 µM [inhibitor, single point]
COc1ccc(-c2noc(CSc3nnc(C)n3-c3cccc(C)c3)n2)cc1 8.91 µM [inhibitor, partial curve, poor fit]
O=C(c1cccc(S(=O)(=O)N2CCCc3ccccc32)c1)N1CCN(c2ccccc2)CC1 31.6 µM [inhibitor, single point]
CCOC(=O)[C@@H]1[C@H]2COc3ccc(Br)cc3[C@@H]2N2C(=O)N(c3ccc(Br)cc3)C(=O)[C@]12C 12.6 µM [inhibitor, single point]
COc1cc(C(=O)NCCc2csc(-c3ccc(Cl)cc3)n2)cc(OC)c1OC 10 µM [inhibitor, partial curve, poor fit]
C=CCSc1n[nH]c(-c2ccc(OCCCC)cc2)n1 7.94 µM [inhibitor, partial curve, poor fit]
CNC(=S)N/N=C(\C)c1cccc(C(F)(F)F)c1 10 µM [inhibitor, partial curve, poor fit]
COc1cccc(CN2CCC(n3nccc3NC(=O)CCCc3ccccc3)CC2)c1O 10 µM [inhibitor, single point]
O=C(Nc1ccc(Cl)c(Cl)c1)N[C@@H]1CC[C@@H](CCn2cc(C3CCCCC3)nn2)O[C@@H]1CO 28.2 µM [inhibitor, single point]

Activity change, negative = inhibition, inactive:
O=C(NC1=NCCS1)c1ccc([N+](=O)[O-])cc1Cl 9.14% [at 7.66 µM]
